In the supplement of paper PMC8728848:
The list shows a part of the results.

How the values were obtained:
Assay in all cases: glycan array binding signal (z-score within array); higher = stronger binding
Details in all cases: glycan notation: IUPAC condensed, linker removed
[1] = target: Neu5Ac(a2-6)Gal(b1-4)GlcNAc(b1-3)Gal(b1-4)[Fuc(a1-3)]GlcNAc(b1-3)Gal(b1-4)[Fuc(a1-3)]GlcNAc
How it was run: (§1)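 The binding signal is a Z-score computed within each array. Data were drawn from 3228 arrays in the Consortium for Functional Glycomics database, restricted to those with a known protein sequence. Scores were averaged over arrays of the same protein sequence at different concentrations or buffers, and over linkers, and negative values can be taken as non-binding.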

[2] = target: Neu5Ac(a2-6)Gal(b1-4)GlcNAc(b1-3)GalNAc
How it was run: as §1

[3] = target: Neu5Ac(a2-6)Gal(b1-4)GlcNAc(b1-3)[Neu5Ac(a2-6)Gal(b1-4)GlcNAc(b1-6)]GalNAc
How it was run: as §1

[4] = target: Neu5Ac(a2-6)Gal(b1-4)GlcNAc(b1-6)GalNAc
How it was run: as §1

[5] = target: Neu5Ac(a2-6)Gal(b1-4)GlcNAc(b1-6)[Gal(b1-3)GlcNAc(b1-3)]Gal(b1-4)Glc
How it was run: as §1

[6] = target: Neu5Ac(a2-6)Gal(b1-4)GlcNAc(b1-6)[Gal(b1-3)]GalNAc
How it was run: as §1

[7] = target: Neu5Ac(a2-6)Gal(b1-4)GlcNAc6S
How it was run: as §1

Neu5Ac(a2-6)GalNAc = target: Neu5Ac(a2-6)GalNAc
How it was run: as §1

[8] = target: Neu5Ac(a2-6)GalNAc(b1-4)GlcNAc
How it was run: as §1

[9] = target: Neu5Ac(a2-6)GalNAc(b1-4)GlcNAc6S
How it was run: as §1

[10] = target: Neu5Ac(a2-6)GlcNAc(b1-4)GlcNAc
How it was run: as §1

[11] = target: Neu5Ac(a2-6)GlcNAc(b1-4)GlcNAc(b1-4)GlcNAc
How it was run: as §1

Neu5Ac(a2-8)Neu5Ac = target: Neu5Ac(a2-8)Neu5Ac
How it was run: as §1

[12] = target: Neu5Ac(a2-8)Neu5Ac(a2-3)Gal(b1-3)GalNAc(b1-4)[Neu5Ac(a2-3)]Gal(b1-4)Glc
How it was run: as §1

[13] = target: Neu5Ac(a2-8)Neu5Ac(a2-3)Gal(b1-3)GalNAc(b1-4)[Neu5Ac(a2-8)Neu5Ac(a2-3)]Gal(b1-4)Glc
How it was run: as §1

[14] = target: Neu5Ac(a2-8)Neu5Ac(a2-3)Gal(b1-4)Glc
How it was run: as §1

[15] = target: Neu5Ac(a2-8)Neu5Ac(a2-3)Gal(b1-4)GlcNAc
How it was run: as §1

[16] = target: Neu5Ac(a2-8)Neu5Ac(a2-3)[Gal(b1-3)GalNAc(b1-4)]Gal(b1-4)Glc
How it was run: as §1

[17] = target: Neu5Ac(a2-8)Neu5Ac(a2-3)[GalNAc(b1-4)]Gal(b1-4)Glc
How it was run: as §1

[18] = target: Neu5Ac(a2-8)Neu5Ac(a2-8)Neu5Ac
How it was run: as §1

[19] = target: Neu5Ac(a2-8)Neu5Ac(a2-8)Neu5Ac(a2-3)Gal(b1-4)Glc
How it was run: as §1

[20] = target: Neu5Ac(a2-8)Neu5Ac(a2-8)Neu5Ac(a2-3)[Gal(b1-3)GalNAc(b1-4)]Gal(b1-4)Glc
How it was run: as §1

[21] = target: Neu5Ac(a2-8)Neu5Ac(a2-8)Neu5Ac(a2-3)[GalNAc(b1-4)]Gal(b1-4)Glc
How it was run: as §1

[22] = target: Neu5Ac(a2-8)Neu5Ac(a2-8)Neu5Ac(a2-8)Neu5Ac(a2-3)[GalNAc(b1-4)]Gal(b1-4)Glc
How it was run: as §1

[23] = target: Neu5Ac(a2-8)Neu5Gc(a2-3)Gal(b1-4)GlcNAc
How it was run: as §1

[24] = target: Neu5Ac(b2-6)Gal(b1-4)GlcNAc
How it was run: as §1

Neu5Ac(b2-6)GalNAc = target: Neu5Ac(b2-6)GalNAc
How it was run: as §1

[25] = target: Neu5Ac9Ac(a2-3)Gal(b1-3)GlcNAc
How it was run: as §1

[26] = target: Neu5Ac9Ac(a2-3)Gal(b1-4)GlcNAc
How it was run: as §1

[27] = target: Neu5Ac9Ac(a2-6)Gal(b1-4)GlcNAc
How it was run: as §1

[28] = target: Neu5Gc(a2-3)Gal(b1-3)GlcNAc
How it was run: as §1

[29] = target: Neu5Gc(a2-3)Gal(b1-3)[Fuc(a1-4)]GlcNAc
How it was run: as §1

Neu5Gc(a2-3)Gal(b1-4)Glc = target: Neu5Gc(a2-3)Gal(b1-4)Glc
How it was run: as §1

[30] = target: Neu5Gc(a2-3)Gal(b1-4)GlcNAc
How it was run: as §1

[31] = target: Neu5Gc(a2-3)Gal(b1-4)GlcNAc(b1-3)Gal(b1-4)GlcNAc(b1-2)Man(a1-3)[Neu5Gc(a2-3)Gal(b1-4)GlcNAc(b1-3)Gal(b1-4)GlcNAc(b1-2)Man(a1-6)]Man(b1-4)GlcNAc(b1-4)GlcNAc
How it was run: as §1

[32] = target: Neu5Gc(a2-3)Gal(b1-4)[Fuc(a1-3)]GlcNAc
How it was run: as §1

[33] = target: Neu5Gc(a2-6)Gal(b1-4)GlcNAc
How it was run: as §1

Neu5Gc(a2-6)GalNAc = target: Neu5Gc(a2-6)GalNAc
How it was run: as §1

[34] = target: Neu5Gc(a2-8)Neu5Ac(a2-3)Gal(b1-4)GlcNAc
How it was run: as §1

[35] = target: Neu5Gc(a2-8)Neu5Gc(a2-3)Gal(b1-4)GlcNAc
How it was run: as §1

[36] = target: Neu5Gc(a2-8)Neu5Gc(a2-3)Gal(b1-4)GlcNAc(b1-3)Gal(b1-4)GlcNAc
How it was run: as §1

[37] = target: Neu5Gc(a2-8)Neu5Gc(a2-6)Gal(b1-4)GlcNAc
How it was run: as §1

[38] = target: Neu5Gc(b2-6)Gal(b1-4)GlcNAc
How it was run: as §1

B1: MGL6A (Homo sapiens) (protein)
chain: MTRTYENFQYLENKVKVQGFKNGPLPLQSLLQRLCSGPCHLLLSLGLGLLLLVIICVVGFQNSKFQRDLVTLRTDFSNFTSNTVAEIQALTSQGSSLEETIASLKAEVEGFKQERQAVHSEMLLRVQQLVQDLKKLTCQVATLNNNGEEASTEGTCCPVNWVEHQDSCYWFSHSGMSWAEAEKYCQLKNAHLVVINSREEQNFVQKYLGSAYTWMGLSDPEGAWKWVDGTDYATGFQNWKPGQPDDWQGHGLGGGEDCAHFHPDGRWNDDVCQRPYHWVCEAGLGQTSQESH
With B1 as the binder, how does the “glycan array binding signal (z-score)” value [1] read?
The value was -0.295.

And the “glycan array binding signal (z-score)” value [2]?
The value was -0.189.

And the “glycan array binding signal (z-score)” value [3]?
The value was -0.214.

And the “glycan array binding signal (z-score)” value [4]?
The value was -0.237.

What about the “glycan array binding signal (z-score)” value [5] of the same binder?
The value was -0.27.

What about the “glycan array binding signal (z-score)” value [6] of the same binder?
The value was -0.264.

And the “glycan array binding signal (z-score)” value [7]?
Its value is -0.292.

And the “glycan array binding signal (z-score)” value (Neu5Ac(a2-6)GalNAc)?
Its value is 1.56.

And the “glycan array binding signal (z-score)” value [8]?
Its value is 1.56.

And the “glycan array binding signal (z-score)” value [9]?
Its value is 0.124.

And the “glycan array binding signal (z-score)” value [10]?
Its value is -0.154.

And the “glycan array binding signal (z-score)” value [11]?
Its value is -0.189.

What about the “glycan array binding signal (z-score)” value (Neu5Ac(a2-8)Neu5Ac) of the same binder?
Its value is -0.274.

And the “glycan array binding signal (z-score)” value [12]?
The value was -0.254.

What about the “glycan array binding signal (z-score)” value [13] of the same binder?
Its value is -0.251.

What about the “glycan array binding signal (z-score)” value [14] of the same binder?
The value was -0.293.

What about the “glycan array binding signal (z-score)” value [15] of the same binder?
Its value is -0.265.

And the “glycan array binding signal (z-score)” value [16]?
Its value is 0.481.

And the “glycan array binding signal (z-score)” value [17]?
The value was 2.18.

And the “glycan array binding signal (z-score)” value [18]?
The value was -0.282.

What about the “glycan array binding signal (z-score)” value [19] of the same binder?
Its value is -0.295.

What about the “glycan array binding signal (z-score)” value [20] of the same binder?
The value was -0.251.

What about the “glycan array binding signal (z-score)” value [21] of the same binder?
Its value is 2.87.

What about the “glycan array binding signal (z-score)” value [22] of the same binder?
The value was 3.22.

What about the “glycan array binding signal (z-score)” value [23] of the same binder?
Its value is -0.271.

What about the “glycan array binding signal (z-score)” value [24] of the same binder?
Its value is -0.277.

And the “glycan array binding signal (z-score)” value (Neu5Ac(b2-6)GalNAc)?
Its value is -0.24.

And the “glycan array binding signal (z-score)” value [25]?
The value was -0.341.

What about the “glycan array binding signal (z-score)” value [26] of the same binder?
Its value is -0.292.

And the “glycan array binding signal (z-score)” value [27]?
Its value is -0.277.

What about the “glycan array binding signal (z-score)” value [28] of the same binder?
Its value is -0.256.

What about the “glycan array binding signal (z-score)” value [29] of the same binder?
Its value is -0.288.

And the “glycan array binding signal (z-score)” value (Neu5Gc(a2-3)Gal(b1-4)Glc)?
Its value is -0.288.

What about the “glycan array binding signal (z-score)” value [30] of the same binder?
Its value is -0.228.

And the “glycan array binding signal (z-score)” value [31]?
The value was -0.258.

What about the “glycan array binding signal (z-score)” value [32] of the same binder?
Its value is -0.224.

And the “glycan array binding signal (z-score)” value [33]?
The value was -0.101.

What about the “glycan array binding signal (z-score)” value (Neu5Gc(a2-6)GalNAc) of the same binder?
Its value is 0.148.

What about the “glycan array binding signal (z-score)” value [34] of the same binder?
Its value is -0.273.

And the “glycan array binding signal (z-score)” value [35]?
The value was -0.266.

What about the “glycan array binding signal (z-score)” value [36] of the same binder?
The value was -0.26.

What about the “glycan array binding signal (z-score)” value [37] of the same binder?
The value was -0.245.

What about the “glycan array binding signal (z-score)” value [38] of the same binder?
The value was -0.274.
